# Test results as given in the supplement of paper PMC8728848.
# The list shows a part of the results.
# B1: Arath Fbox LD (Arabidopsis thaliana) (protein)
# chain: EFSVWLEKASGKRCLMLSAMNLSIIWGDNPQYWQWIPIPESRFEKVAKLRDVCWFEIRGRTNTRVLSPRTRYSAYIVFKGVDKCYGFQNVAIEAAVGVVGQEPSRRLICFSEAIRRGRRNVVKPKQREDGWMEIELGEFFNDGGIMDNDEIEMSALETKQLNRKCGLIIQGIEIRPAKILAAASFLEQKLISEEDLNSAVDHHHHHH
# Assays:
# Experiment in all cases: glycan array binding signal (z-score within array); higher = stronger binding
# Details in all cases: glycan notation: IUPAC condensed, linker removed
# [1] = target: Neu5Ac(a2-6)Gal(b1-4)GlcNAc(b1-2)Man(a1-3)[Man(a1-6)]Man(b1-4)GlcNAc(b1-4)GlcNAc
# Outline: (§1)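 The Consortium for Functional Glycomics database supplied 3228 glycan arrays, of which those lacking an available protein sequence were dropped. The binding signal, a within-array Z-score, was averaged across arrays of the same protein sequence and across linkers. Negative scores can be read as non-binding.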
# [2] = target: Neu5Ac(a2-6)Gal(b1-4)GlcNAc(b1-2)Man(a1-3)[Neu5Ac(a2-3)Gal(b1-4)GlcNAc(b1-2)Man(a1-6)]Man(b1-4)GlcNAc(b1-4)GlcNAc
# Outline: as §1
# [3] = target: Neu5Ac(a2-6)Gal(b1-4)GlcNAc(b1-2)Man(a1-3)[Neu5Ac(a2-6)Gal(b1-4)GlcNAc(b1-2)Man(a1-6)]Man(b1-4)GlcNAc(b1-4)GlcNAc
# Outline: as §1
# [4] = target: Neu5Ac(a2-6)Gal(b1-4)GlcNAc(b1-2)Man(a1-3)[Neu5Ac(a2-6)Gal(b1-4)GlcNAc(b1-2)Man(a1-6)]Man(b1-4)GlcNAc(b1-4)[Fuc(a1-6)]GlcNAc
# Outline: as §1
# [5] = target: Neu5Ac(a2-6)Gal(b1-4)GlcNAc(b1-2)Man(a1-6)Man(b1-4)GlcNAc(b1-4)GlcNAc
# Outline: as §1
# [6] = target: Neu5Ac(a2-6)Gal(b1-4)GlcNAc(b1-2)Man(a1-6)[Gal(b1-4)GlcNAc(b1-2)Man(a1-3)]Man(b1-4)GlcNAc(b1-4)GlcNAc
# Outline: as §1
# [7] = target: Neu5Ac(a2-6)Gal(b1-4)GlcNAc(b1-2)Man(a1-6)[GlcNAc(b1-2)Man(a1-3)]Man(b1-4)GlcNAc(b1-4)GlcNAc
# Outline: as §1
# [8] = target: Neu5Ac(a2-6)Gal(b1-4)GlcNAc(b1-2)Man(a1-6)[Man(a1-3)]Man(b1-4)GlcNAc(b1-4)GlcNAc
# Outline: as §1
# [9] = target: Neu5Ac(a2-6)Gal(b1-4)GlcNAc(b1-2)[Neu5Ac(a2-6)Gal(b1-4)GlcNAc(b1-4)]Man(a1-3)[GlcNAc(b1-4)][Neu5Ac(a2-6)Gal(b1-4)GlcNAc(b1-2)[Neu5Ac(a2-6)Gal(b1-4)GlcNAc(b1-6)]Man(a1-6)]Man(b1-4)GlcNAc(b1-4)GlcNAc
# Outline: as §1
# [10] = target: Neu5Ac(a2-6)Gal(b1-4)GlcNAc(b1-2)[Neu5Ac(a2-6)Gal(b1-4)GlcNAc(b1-4)]Man(a1-3)[GlcNAc(b1-4)][Neu5Ac(a2-6)Gal(b1-4)GlcNAc(b1-4)Man(a1-6)]Man(b1-4)GlcNAc(b1-4)GlcNAc
# Outline: as §1
# [11] = target: Neu5Ac(a2-6)Gal(b1-4)GlcNAc(b1-2)[Neu5Ac(a2-6)Gal(b1-4)GlcNAc(b1-6)]Man(a1-6)[Neu5Ac(a2-6)Gal(b1-4)GlcNAc(b1-2)Man(a1-3)][GlcNAc(b1-4)]Man(b1-4)GlcNAc(b1-4)GlcNAc
# Outline: as §1
# [12] = target: Neu5Ac(a2-6)Gal(b1-4)GlcNAc(b1-3)Gal(b1-3)GlcNAc
# Outline: as §1
# [13] = target: Neu5Ac(a2-6)Gal(b1-4)GlcNAc(b1-3)Gal(b1-4)GlcNAc
# Outline: as §1
# [14] = target: Neu5Ac(a2-6)Gal(b1-4)GlcNAc(b1-3)Gal(b1-4)GlcNAc(b1-2)Man(a1-3)[Neu5Ac(a2-6)Gal(b1-4)GlcNAc(b1-3)Gal(b1-4)GlcNAc(b1-2)Man(a1-6)]GalNAc
# Outline: as §1
# [15] = target: Neu5Ac(a2-6)Gal(b1-4)GlcNAc(b1-3)Gal(b1-4)GlcNAc(b1-3)Gal(b1-4)GlcNAc
# Outline: as §1
# [16] = target: Neu5Ac(a2-6)Gal(b1-4)GlcNAc(b1-3)Gal(b1-4)GlcNAc(b1-3)Gal(b1-4)GlcNAc(b1-2)Man(a1-3)[Neu5Ac(a2-6)Gal(b1-4)GlcNAc(b1-3)Gal(b1-4)GlcNAc(b1-3)Gal(b1-4)GlcNAc(b1-2)Man(a1-6)]GalNAc
# Outline: as §1
# [17] = target: Neu5Ac(a2-6)Gal(b1-4)GlcNAc(b1-3)Gal(b1-4)GlcNAc(b1-3)GalNAc
# Outline: as §1
# [18] = target: Neu5Ac(a2-6)Gal(b1-4)GlcNAc(b1-3)Gal(b1-4)GlcNAc(b1-3)[Neu5Ac(a2-6)Gal(b1-4)GlcNAc(b1-3)Gal(b1-4)GlcNAc(b1-6)]GalNAc
# Outline: as §1
# [19] = target: Neu5Ac(a2-6)Gal(b1-4)GlcNAc(b1-3)Gal(b1-4)GlcNAc(b1-6)[Gal(b1-3)]GalNAc
# Outline: as §1
# [20] = target: Neu5Ac(a2-6)Gal(b1-4)GlcNAc(b1-3)Gal(b1-4)[Fuc(a1-3)]GlcNAc(b1-3)Gal(b1-4)[Fuc(a1-3)]GlcNAc
# Outline: as §1
# [21] = target: Neu5Ac(a2-6)Gal(b1-4)GlcNAc(b1-3)GalNAc
# Outline: as §1
# [22] = target: Neu5Ac(a2-6)Gal(b1-4)GlcNAc(b1-3)[Neu5Ac(a2-6)Gal(b1-4)GlcNAc(b1-6)]GalNAc
# Outline: as §1
# [23] = target: Neu5Ac(a2-6)Gal(b1-4)GlcNAc(b1-6)GalNAc
# Outline: as §1
# [24] = target: Neu5Ac(a2-6)Gal(b1-4)GlcNAc(b1-6)[Gal(b1-3)GlcNAc(b1-3)]Gal(b1-4)Glc
# Outline: as §1
# [25] = target: Neu5Ac(a2-6)Gal(b1-4)GlcNAc(b1-6)[Gal(b1-3)]GalNAc
# Outline: as §1
# [26] = target: Neu5Ac(a2-6)Gal(b1-4)GlcNAc6S
# Outline: as §1
# Neu5Ac(a2-6)GalNAc = target: Neu5Ac(a2-6)GalNAc
# Outline: as §1
# [27] = target: Neu5Ac(a2-6)GalNAc(b1-4)GlcNAc
# Outline: as §1
# [28] = target: Neu5Ac(a2-6)GalNAc(b1-4)GlcNAc6S
# Outline: as §1
# [29] = target: Neu5Ac(a2-6)GlcNAc(b1-4)GlcNAc
# Outline: as §1
# [30] = target: Neu5Ac(a2-6)GlcNAc(b1-4)GlcNAc(b1-4)GlcNAc
# Outline: as §1
binder,measurement,setting,value
B1,glycan array binding signal (z-score),[1],-0.11
same,glycan array binding signal (z-score),[2],-0.541
same,glycan array binding signal (z-score),[3],-0.342
same,glycan array binding signal (z-score),[4],-0.55
same,glycan array binding signal (z-score),[5],-0.541
same,glycan array binding signal (z-score),[6],0.038
same,glycan array binding signal (z-score),[7],-0.555
same,glycan array binding signal (z-score),[8],-0.359
same,glycan array binding signal (z-score),[9],0.464
same,glycan array binding signal (z-score),[10],0.245
same,glycan array binding signal (z-score),[11],0.015
same,glycan array binding signal (z-score),[12],-0.356
same,glycan array binding signal (z-score),[13],0.147
same,glycan array binding signal (z-score),[14],-0.579
same,glycan array binding signal (z-score),[15],-0.407
same,glycan array binding signal (z-score),[16],-0.311
same,glycan array binding signal (z-score),[17],-0.344
same,glycan array binding signal (z-score),[18],-0.503
same,glycan array binding signal (z-score),[19],0.373
same,glycan array binding signal (z-score),[20],0.615
same,glycan array binding signal (z-score),[21],-0.324
same,glycan array binding signal (z-score),[22],0.648
same,glycan array binding signal (z-score),[23],0.368
same,glycan array binding signal (z-score),[24],-0.408
same,glycan array binding signal (z-score),[25],-0.326
same,glycan array binding signal (z-score),[26],-0.357
same,glycan array binding signal (z-score),Neu5Ac(a2-6)GalNAc,-0.464
same,glycan array binding signal (z-score),[27],-0.53
same,glycan array binding signal (z-score),[28],-0.25
same,glycan array binding signal (z-score),[29],-0.307
same,glycan array binding signal (z-score),[30],-0.175
